Data: article PMC4242493
This is one part of the list. The list includes weakly bound sequences.

What follows are sequences tested against MaxL homodimer (UniProt P61244) (assay: universal protein-binding microarray (PBM)). Settings: PBS-based mixture, 10 nM His-tagged protein dimer, 2% milk, 200 ng/uL BSA, 50 ng/uL salmon testes DNA, 0.02% TX-100; detection with Alexa 488 anti-His …; high values mean tight binding; most listed sequences are background and not binding sites; double strand, one strand shown.
Chain of UniProt P61244 (P61244 whole entry): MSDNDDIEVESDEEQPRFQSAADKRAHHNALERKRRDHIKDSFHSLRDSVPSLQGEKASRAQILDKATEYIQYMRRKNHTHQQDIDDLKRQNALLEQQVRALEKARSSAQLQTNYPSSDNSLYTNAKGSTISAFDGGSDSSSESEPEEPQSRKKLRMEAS

| Sequence | binding signal (normalized occupancy) |
| --- | --- |
| GGGGGTAC | 0.082 |
| CCTCCAGA | 0.0716 |
| GACATGTA | 0.0884 |
| GAGGACTA | 0.0758 |
| CTAGGGAG | 0.0726 |
| ACATTCGT | 0.0804 |
| ACGGTACA | 0.0773 |
| AAGTAGGC | 0.0745 |
| TCACGGAA | 0.0721 |
| CCCGGGCG | 0.069 |
| AGACTGTG | 0.0696 |
| AGGGACGC | 0.0691 |
| ACGTGGTA | 0.115 |
| TAAATTTA | 0.0729 |
| AAACCTGG | 0.0787 |
| GAAGGTAA | 0.0738 |
| TCAGTCCA | 0.0731 |
| ATCTAACC | 0.0798 |
| TGTCCAAA | 0.079 |
| CCTCCTTC | 0.0732 |
| GGTGGAGA | 0.0757 |
| ACCAGGGT | 0.0713 |

| Sequence | binding signal (normalized occupancy) |
| --- | --- |
| CAATCCTG | 0.0744 |
| AGCAGTAA | 0.0692 |
| CAACATCG | 0.0784 |
| AAGGTTCT | 0.0744 |
| CACCAAAC | 0.076 |
| GATACGGC | 0.068 |
| CTATGGCC | 0.0704 |
| CACACTCC | 0.0811 |
| TACCGGGA | 0.0741 |
| ACACTACT | 0.0755 |
| AATATCAG | 0.0772 |
| ACGATCTC | 0.0679 |
| ACACACTC | 0.0859 |
| GCGATGAC | 0.0752 |
| GCGCGACA | 0.0733 |
| AGGATTAA | 0.0715 |
| ATGTGGTC | 0.0985 |
| GCAACCCA | 0.0781 |
| ATGGATCG | 0.0798 |
| CACATCGG | 0.0739 |
| CACGATGC | 0.0946 |
| AGCCTCAG | 0.0649 |

| Sequence | binding signal (normalized occupancy) |
| --- | --- |
| GGGTGAGA | 0.0818 |
| CCGCCAGA | 0.0735 |
| GGGTACAC | 0.0823 |
| CCTATCGA | 0.0772 |
| AATCGCCA | 0.0753 |
| TAAGGTGA | 0.0717 |
| ACCACGCT | 0.123 |
| CAAGTGCC | 0.0688 |
| GGTGGGAA | 0.0801 |
| CATTAAGC | 0.0758 |
| ATCACATG | 0.158 |
| ATATTCAG | 0.0784 |
| CAATCAAG | 0.0746 |
| AATCAGAT | 0.0782 |
| ACACCTAA | 0.0763 |
| TGTATAAA | 0.085 |
| ACCGCTTA | 0.0737 |
| ATGCACAA | 0.0827 |
| TGAGATCA | 0.0819 |
| CATCCTGC | 0.0785 |
| AAGAGGGT | 0.0742 |
| ACACGTCC | 0.08 |

| Sequence | binding signal (normalized occupancy) |
| --- | --- |
| ATTACCTG | 0.0735 |
| AACCCATT | 0.0783 |
| ACGTACGT | 0.0783 |
| CGGATCGC | 0.0707 |
| ATTTCCGC | 0.0733 |
| ATGAAGTG | 0.0824 |
| ATGCGTGA | 0.0965 |
| CCAAGTAA | 0.0724 |
| AGATTAAA | 0.068 |
| ATATACAA | 0.0876 |
| CCTTTTAC | 0.0757 |
| CGTGTGCC | 0.0918 |
| CCGCCGAA | 0.0661 |
| ACCCCGCT | 0.0799 |
| AAACACAA | 0.0776 |
| GCCCCCAA | 0.0736 |
| ACGTGTAA | 0.1 |
| AAAACGCG | 0.0758 |
| ACTTCGCC | 0.0729 |
| ACAGAACA | 0.073 |
| AACGTGAG | 0.0854 |
| CCCGCGGG | 0.0758 |

| Sequence | binding signal (normalized occupancy) |
| --- | --- |
| AGCGGGCG | 0.0694 |
| AGGCTAAG | 0.07 |
| ATTCCTAA | 0.0781 |
| AAACGTCG | 0.0737 |
| CAAGTCTC | 0.0729 |
| ATGGCTCG | 0.0763 |
| GAGAAGTA | 0.0795 |
| ATAATTAG | 0.0786 |
| CCGAGACC | 0.0792 |
| ACGGTTCG | 0.0714 |
| GAGTGTGA | 0.0772 |
| GGGTAGTA | 0.0811 |
| GGTCTTCA | 0.0693 |
| ATCATACG | 0.0791 |
| CTACTGGC | 0.0668 |
| CGATTGAA | 0.0751 |
| ATTCCTTC | 0.072 |
| CAACAAAG | 0.0685 |
| GAAACACC | 0.0751 |
| CTGATGAC | 0.0751 |
| ATAGGGAC | 0.074 |
| GGACCGCC | 0.0671 |
